# Results published in the supplement of paper PMC8728848.
# The list shows a part of the results.
# B1: BT3172pd (Bacteroides thetaiotaomicron) (protein)
# chain: MLPLRAEHYYYKQISLKEGLPSNVRCILRDEQGFIWIGTKAGLGKFDGHQLKRYKHQANDPHSLLHNLIYQIAEDKQHNIWILTEKGIARYQQQSNNFTFPTDEEGNYITAYSFCLVPDGILFGGKDRIYKYSYKDSSLRLLQYFNANSFKITALSVWDSKTLLCCSRWTGLYLVDLQTGEHRRPPFDCGPEITSMITDSKNRIWIAPYSGGLRCYSRDGKLSASYTTHNSSLSNDIVLSLAEREEQLWIGTDGGGINILHPETGEISQLEYIPGRENYSLPANSILCLHNDYNNNVWAGSTCNGLISIREVSMKTYTDVVPGNDRGLSNGTVRSLYRQSPDSIWIGTDGGGINLFSPHTEKFTHYSSTWGDKVAFISGFTPGKLLISLFSKGVFVFNPATGEKQPFTIIDKETTTRLCNRGKSVNLYQNTPNTVLFLGDHIYQYHLKEKKFSTITEEEGKDIVGTLVPFDHQENLTYINDIKHIYELDDQTSRLKTVFECYTDTVISSVSHDEQGHFWIGSNFGLIHYDPVLKSRTLVPTNLFTEINMVLCDQKGKVWIGVDNMLFAYFIKEQKFVLFGESNGAIQNEYLPNARLVNEQGDAYIGGVKGMLRIDGQLLLNTSEMPELQLLDITINGESANHEWYNHPAKISVPWNSNISIRIMSREEDIFRQKIYRYQIEGLNNEYTESYNPELVIRSLLPGSYRIMASCTAKDGSWIPDQQVLELTVLPPWYRTHHHHHH
# Tests used:
# Assay in all cases: glycan array binding signal (z-score within array); higher = stronger binding
# Details in all cases: glycan notation: IUPAC condensed, linker removed
# Gal3S(b1-4)Glc = molecular target: Gal3S(b1-4)Glc
# Outline: (§1)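 Glycan array binding is given as a within-array Z-score, which can be read as non-binding when negative. The arrays, 3228 of them, came from the Consortium for Functional Glycomics database and were retained only where the protein sequence was available. Z-scores were averaged across arrays of the same protein sequence at different concentrations or buffers and across linkers.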
# Gal3S(b1-4)Glc6S = molecular target: Gal3S(b1-4)Glc6S
# Outline: as §1
# Gal3S(b1-4)GlcNAc = molecular target: Gal3S(b1-4)GlcNAc
# Outline: as §1
# [1] = molecular target: Gal3S(b1-4)[Fuc(a1-3)]Glc6S
# Outline: as §1
# [2] = molecular target: Gal3S(b1-4)[Fuc(a1-3)]GlcNAc
# Outline: as §1
# [3] = molecular target: Gal3S(b1-4)[Fuc(a1-3)]GlcNAc6S
# Outline: as §1
# Gal3S4S(b1-4)GlcNAc = molecular target: Gal3S4S(b1-4)GlcNAc
# Outline: as §1
# Gal3S6S(b1-4)GlcNAc = molecular target: Gal3S6S(b1-4)GlcNAc
# Outline: as §1
# Gal3S6S(b1-4)GlcNAc6S = molecular target: Gal3S6S(b1-4)GlcNAc6S
# Outline: as §1
# Gal4S(b1-4)GlcNAc = molecular target: Gal4S(b1-4)GlcNAc
# Outline: as §1
# Gal4S6S(b1-4)GlcNAc = molecular target: Gal4S6S(b1-4)GlcNAc
# Outline: as §1
# Gal6P(b1-4)GlcNAc = molecular target: Gal6P(b1-4)GlcNAc
# Outline: as §1
# Gal6S(b1-3)GlcNAc = molecular target: Gal6S(b1-3)GlcNAc
# Outline: as §1
# Gal6S(b1-3)GlcNAc6S = molecular target: Gal6S(b1-3)GlcNAc6S
# Outline: as §1
# Gal6S(b1-4)Glc = molecular target: Gal6S(b1-4)Glc
# Outline: as §1
# Gal6S(b1-4)Glc6S = molecular target: Gal6S(b1-4)Glc6S
# Outline: as §1
# Gal6S(b1-4)GlcNAc = molecular target: Gal6S(b1-4)GlcNAc
# Outline: as §1
# Gal6S(b1-4)GlcNAc6S = molecular target: Gal6S(b1-4)GlcNAc6S
# Outline: as §1
# GalNAc(a1-3)Gal = molecular target: GalNAc(a1-3)Gal
# Outline: as §1
# GalNAc(a1-3)GalNAc = molecular target: GalNAc(a1-3)GalNAc
# Outline: as §1
# [4] = molecular target: GalNAc(a1-3)GalNAc(b1-3)Gal(a1-4)Gal(b1-4)Glc
# Outline: as §1
# [5] = molecular target: GalNAc(a1-3)GalNAc(b1-3)Gal(a1-4)Gal(b1-4)GlcNAc
# Outline: as §1
# GalNAc(b1-3)Gal = molecular target: GalNAc(b1-3)Gal
# Outline: as §1
# [6] = molecular target: GalNAc(b1-3)Gal(a1-4)Gal(b1-4)GlcNAc
# Outline: as §1
# [7] = molecular target: GalNAc(b1-3)Gal(a1-4)Gal(b1-4)GlcNAc(b1-3)Gal(b1-4)Glc
# Outline: as §1
# [8] = molecular target: GalNAc(b1-3)Gal(a1-6)Gal(b1-4)Glc
# Outline: as §1
# GalNAc(b1-3)GalNAc = molecular target: GalNAc(b1-3)GalNAc
# Outline: as §1
# GalNAc(b1-3)GlcNAc = molecular target: GalNAc(b1-3)GlcNAc
# Outline: as §1
# GalNAc(b1-4)Gal(b1-4)Glc = molecular target: GalNAc(b1-4)Gal(b1-4)Glc
# Outline: as §1
# GalNAc(b1-4)GlcNAc = molecular target: GalNAc(b1-4)GlcNAc
# Outline: as §1
# [9] = molecular target: GalNAc(b1-4)GlcNAc(b1-2)Man
# Outline: as §1
# [10] = molecular target: GalNAc(b1-4)GlcNAc(b1-2)Man(a1-3)[GalNAc(b1-4)GlcNAc(b1-2)Man(a1-6)]Man(b1-4)GlcNAc(b1-4)GlcNAc
# Outline: as §1
# [11] = molecular target: GalNAc(b1-4)GlcNAc(b1-3)GalNAc(b1-4)GlcNAc
# Outline: as §1
# GalNAc(b1-4)GlcNAc6S = molecular target: GalNAc(b1-4)GlcNAc6S
# Outline: as §1
# GalNAc(b1-6)GalNAc = molecular target: GalNAc(b1-6)GalNAc
# Outline: as §1
# GalNAc3S(b1-4)GlcNAc = molecular target: GalNAc3S(b1-4)GlcNAc
# Outline: as §1
# GalNAc3S(b1-4)GlcNAc3S = molecular target: GalNAc3S(b1-4)GlcNAc3S
# Outline: as §1
# [12] = molecular target: GalNAc3S(b1-4)[Fuc(a1-3)]GlcNAc
# Outline: as §1
# GalNAc4S6S(b1-4)GlcNAc = molecular target: GalNAc4S6S(b1-4)GlcNAc
# Outline: as §1
# GalNAc6S(b1-4)GlcNAc = molecular target: GalNAc6S(b1-4)GlcNAc
# Outline: as §1
# Glc(a1-4)Glc = molecular target: Glc(a1-4)Glc
# Outline: as §1
# [13] = molecular target: Glc(a1-4)Glc(a1-4)Glc(a1-4)Glc
# Outline: as §1
# Glc(a1-6)Glc(a1-6)Glc = molecular target: Glc(a1-6)Glc(a1-6)Glc
# Outline: as §1
# [14] = molecular target: Glc(a1-6)Glc(a1-6)Glc(a1-6)Glc
# Outline: as §1
# Glc(b1-4)Glc = molecular target: Glc(b1-4)Glc
# Outline: as §1
# Glc(b1-6)Glc = molecular target: Glc(b1-6)Glc
# Outline: as §1
# GlcA(b1-3)Gal = molecular target: GlcA(b1-3)Gal
# Outline: as §1
# GlcA(b1-3)GlcNAc = molecular target: GlcA(b1-3)GlcNAc
# Outline: as §1
# GlcA(b1-6)Gal = molecular target: GlcA(b1-6)Gal
# Outline: as §1
# [15] = molecular target: GlcA3S(b1-3)Gal(b1-4)GlcNAc(b1-2)Man
# Outline: as §1
# [16] = molecular target: GlcA3S(b1-3)Gal(b1-4)GlcNAc(b1-3)Gal(b1-4)Glc
# Outline: as §1
# [17] = molecular target: GlcNAc(a1-3)Gal(b1-4)GlcNAc
# Outline: as §1
# [18] = molecular target: GlcNAc(a1-4)Gal(b1-3)GlcNAc
# Outline: as §1
# [19] = molecular target: GlcNAc(a1-4)Gal(b1-4)GalNAc
# Outline: as §1
# [20] = molecular target: GlcNAc(a1-4)Gal(b1-4)GlcNAc
# Outline: as §1
# [21] = molecular target: GlcNAc(a1-4)Gal(b1-4)GlcNAc(b1-3)Gal(b1-4)Glc
# Outline: as §1
# [22] = molecular target: GlcNAc(a1-4)Gal(b1-4)GlcNAc(b1-3)Gal(b1-4)GlcNAc
# Outline: as §1
# [23] = molecular target: GlcNAc(a1-4)Gal(b1-4)GlcNAc(b1-3)Gal(b1-4)GlcNAc(b1-3)Gal(b1-4)GlcNAc
# Outline: as §1
# [24] = molecular target: GlcNAc(a1-4)Gal(b1-4)GlcNAc(b1-3)Gal(b1-4)[Fuc(a1-3)]GlcNAc(b1-3)Gal(b1-4)[Fuc(a1-3)]GlcNAc
# Outline: as §1
# [25] = molecular target: GlcNAc(a1-6)Gal(b1-4)GlcNAc
# Outline: as §1
binder,measurement,setting,value
B1,glycan array binding signal (z-score),Gal3S(b1-4)Glc,0.074
same,glycan array binding signal (z-score),Gal3S(b1-4)Glc6S,0.289
same,glycan array binding signal (z-score),Gal3S(b1-4)GlcNAc,0.279
same,glycan array binding signal (z-score),[1],0.491
same,glycan array binding signal (z-score),[2],-0.579
same,glycan array binding signal (z-score),[3],-0.416
same,glycan array binding signal (z-score),Gal3S4S(b1-4)GlcNAc,-0.106
same,glycan array binding signal (z-score),Gal3S6S(b1-4)GlcNAc,-0.222
same,glycan array binding signal (z-score),Gal3S6S(b1-4)GlcNAc6S,-0.116
same,glycan array binding signal (z-score),Gal4S(b1-4)GlcNAc,-0.416
same,glycan array binding signal (z-score),Gal4S6S(b1-4)GlcNAc,0.622
same,glycan array binding signal (z-score),Gal6P(b1-4)GlcNAc,-0.544
same,glycan array binding signal (z-score),Gal6S(b1-3)GlcNAc,0.038
same,glycan array binding signal (z-score),Gal6S(b1-3)GlcNAc6S,-0.785
same,glycan array binding signal (z-score),Gal6S(b1-4)Glc,0.122
same,glycan array binding signal (z-score),Gal6S(b1-4)Glc6S,-0.107
same,glycan array binding signal (z-score),Gal6S(b1-4)GlcNAc,-0.52
same,glycan array binding signal (z-score),Gal6S(b1-4)GlcNAc6S,-0.124
same,glycan array binding signal (z-score),GalNAc(a1-3)Gal,-0.191
same,glycan array binding signal (z-score),GalNAc(a1-3)GalNAc,-0.288
same,glycan array binding signal (z-score),[4],-0.399
same,glycan array binding signal (z-score),[5],0.046
same,glycan array binding signal (z-score),GalNAc(b1-3)Gal,0
same,glycan array binding signal (z-score),[6],-0.496
same,glycan array binding signal (z-score),[7],-0.247
same,glycan array binding signal (z-score),[8],0.074
same,glycan array binding signal (z-score),GalNAc(b1-3)GalNAc,-0.363
same,glycan array binding signal (z-score),GalNAc(b1-3)GlcNAc,-0.246
same,glycan array binding signal (z-score),GalNAc(b1-4)Gal(b1-4)Glc,0.978
same,glycan array binding signal (z-score),GalNAc(b1-4)GlcNAc,0.227
same,glycan array binding signal (z-score),[9],1.37
same,glycan array binding signal (z-score),[10],-0.134
same,glycan array binding signal (z-score),[11],-2.79
same,glycan array binding signal (z-score),GalNAc(b1-4)GlcNAc6S,0.588
same,glycan array binding signal (z-score),GalNAc(b1-6)GalNAc,-0.483
same,glycan array binding signal (z-score),GalNAc3S(b1-4)GlcNAc,-0.04
same,glycan array binding signal (z-score),GalNAc3S(b1-4)GlcNAc3S,-0.647
same,glycan array binding signal (z-score),[12],6.05
same,glycan array binding signal (z-score),GalNAc4S6S(b1-4)GlcNAc,-0.772
same,glycan array binding signal (z-score),GalNAc6S(b1-4)GlcNAc,-0.469
same,glycan array binding signal (z-score),Glc(a1-4)Glc,0.326
same,glycan array binding signal (z-score),[13],1.57
same,glycan array binding signal (z-score),Glc(a1-6)Glc(a1-6)Glc,-0.632
same,glycan array binding signal (z-score),[14],0.665
same,glycan array binding signal (z-score),Glc(b1-4)Glc,2.02
same,glycan array binding signal (z-score),Glc(b1-6)Glc,-0.376
same,glycan array binding signal (z-score),GlcA(b1-3)Gal,0.173
same,glycan array binding signal (z-score),GlcA(b1-3)GlcNAc,0.044
same,glycan array binding signal (z-score),GlcA(b1-6)Gal,1.51
same,glycan array binding signal (z-score),[15],-0.286
same,glycan array binding signal (z-score),[16],0.217
same,glycan array binding signal (z-score),[17],0.074
same,glycan array binding signal (z-score),[18],-0.331
same,glycan array binding signal (z-score),[19],-0.076
same,glycan array binding signal (z-score),[20],-0.811
same,glycan array binding signal (z-score),[21],-0.699
same,glycan array binding signal (z-score),[22],-0.207
same,glycan array binding signal (z-score),[23],-0.56
same,glycan array binding signal (z-score),[24],-0.339
same,glycan array binding signal (z-score),[25],-0.101
